Laboratory results as given in PubChem BioAssay (NCI).
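Cells were grown in 96-well plates and exposed to each compound for 48 hours at five concentrations; endpoints were interpolated linearly between bracketing concentrations, or set to the highest concentration if not reached. GI50 is the concentration that inhibits growth by half. TGI denotes the concentration required for complete inhibition of growth.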

Test system: NCI-H322M lung
Test: DTP human tumour cell line panel, 48 h

Row | SMILES | GI50 [µM] | TGI [µM]
1 | COc1ccc(Cc2nn(CC(=O)N/N=C/c3ccc(Br)cc3)c(=O)c3c(C)noc23)cc1 | 22.7 | > 100
2 | COc1ccc(C(=O)/C=C/c2ccccc2Br)cc1S(N)(=O)=O | 3.28 | 14
